From the antibiotic and cytotoxicity screens of Wong et al. (2023)
This is one part of the list.

tested on: HepG2; experiment: cytotoxicity call (relative viability < 0.9); conditions: 10 µM

SMILES | cytotoxicity call
Cc1ccc(S(=O)(=O)N[C@@H]2C=C[C@@H](CC(=O)NCCN3CCCCC3)O[C@H]2CO)cc1 | inactive
CC(C)n1c(=S)[nH]c2ccccc21 | active
Cc1ccc(S(=O)(=O)N(C)C[C@@H]2OCCCC[C@H](C)Oc3ccc(NC(=O)CCC(F)(F)F)cc3C(=O)N([C@H](C)CO)C[C@@H]2C)cc1 | inactive
COc1ccc(NC(=O)Nc2ccc3c(c2)C(=O)N([C@@H](C)CO)C[C@H](C)[C@H](CN(C)S(=O)(=O)c2cccs2)OCCCC[C@H](C)O3)cc1 | inactive
COc1ccc(S(=O)(=O)N(C)C[C@H]2Oc3ccc(NS(=O)(=O)c4ccccc4)cc3CC(=O)N([C@H](C)CO)C[C@@H]2C)cc1 | inactive
C[C@@H]1CCCCO[C@H](CN(C)C(=O)C2CCCCC2)[C@@H](C)CN([C@@H](C)CO)C(=O)c2cc(NS(=O)(=O)c3cccs3)ccc2O1 | inactive
C[C@H]1CN([C@@H](C)CO)C(=O)c2cccc(NC(=O)c3ccncc3)c2O[C@@H]1CN(C)S(=O)(=O)c1ccc(F)cc1 | inactive
COc1ccc([Si](C)(C)[C@@H]2[C@@H](CCOC(=O)NCCCCCC(=O)NO)O[C@@]3(C(=O)N(Cc4cccc(I)c4)c4ccccc43)[C@H]2C)cc1 | inactive
C=C(NC(=O)C(=C)NC(=O)c1csc(C2=N[C@@H]3c4csc(n4)[C@@H]4NC(=O)c5csc(n5)[C@H](C(C)(O)[C@@H](C)O)NC(=O)[C@H]5CSC(=N5)/C(=C/C)NC(=O)[C@H]([C@@H](C)O)NC(=O)c5csc(n5)[C@]3(CC2)NC(=O)[C@@H](C)NC(=O)C(=C)NC(=O)[C@@H](C)NC(=O)[C@@H]([C@H](C)CC)N[C@H]2C=Cc3c([C@@H](C)O)cc(nc3[C@@H]2O)C(=O)O[C@H]4C)n1)C(N)=O (some centres undefined) | inactive
C[C@@H]1CN([C@@H](C)CO)C(=O)Cc2cc(NS(C)(=O)=O)ccc2O[C@H]1CN(C)S(=O)(=O)c1ccc(Cl)cc1 | inactive
Cc1ccc(S(=O)(=O)Nc2ccc3c(c2)C(=O)N([C@@H](C)CO)C[C@H](C)[C@@H](CN(C)C(=O)Nc2ccc(C(F)(F)F)cc2)OCCCC[C@H](C)O3)cc1 | active
COc1ccc(S(=O)(=O)Nc2ccc3c(c2)CC(=O)N([C@@H](C)CO)C[C@@H](C)[C@H](CN(C)S(=O)(=O)c2ccc(C)cc2)O3)cc1 | inactive
CC(C)NC(=O)N1Cc2cc(C(=O)NC3CCCCC3)nc(-c3cccc(-c4cccnc4)c3)c2[C@H]1CCO | inactive
C[C@@H]1CN([C@H](C)CO)C(=O)Cc2cc(NC(=O)Cn3cnnn3)ccc2O[C@@H]1CN(C)S(C)(=O)=O | inactive
C[C@H](CO)N1C[C@H](C)[C@@H](CN(C)Cc2ccc(Oc3ccccc3)cc2)Oc2ccc(NS(=O)(=O)c3ccc(F)cc3)cc2CC1=O | inactive
COc1ccc(S(=O)(=O)N2[C@@H]3CC[C@@H](C3)[C@H]2c2nc3cccc(OCc4ccccc4)c3[nH]2)cc1OC | inactive
C[C@@H]1CN([C@@H](C)CO)C(=O)c2cc(NC(=O)CCC(F)(F)F)ccc2O[C@@H](C)CCCCO[C@@H]1CN(C)Cc1ccc2c(c1)OCO2 | inactive
C[C@H]1CN([C@@H](C)CO)C(=O)Cc2cc(NC(=O)Cn3cnnn3)ccc2O[C@H]1CN(C)S(=O)(=O)c1cccs1 | inactive
Cc1nc(CSCc2ccc(Cl)cc2Cl)cs1 | inactive
C[C@H](CO)N1C[C@H](C)[C@@H](CN(C)Cc2ccc(C(=O)Nc3ccccc3N)cc2)Oc2ccc(NS(=O)(=O)c3ccc(Cl)cc3)cc2CC1=O | inactive

SMILES | cytotoxicity call
C[C@@H]1CN([C@H](C)CO)C(=O)c2cc(NS(=O)(=O)c3ccc(F)cc3)ccc2O[C@H]1CN(C)CC1CC1 | inactive
COc1ccc(S(=O)(=O)Nc2ccc3c(c2)C(=O)N([C@@H](C)CO)C[C@@H](C)[C@@H](CN(C)CC2CC2)O3)cc1 | inactive
C[C@H](CO)N1C[C@H](C)[C@H](CN(C)C(=O)Nc2cccc3ccccc23)Oc2ccc(NC(=O)Cn3cnnn3)cc2CC1=O | inactive
C[C@@H]1CCCCO[C@@H](CN(C)C(=O)Nc2ccc(C(F)(F)F)cc2)[C@@H](C)CN([C@H](C)CO)C(=O)c2cc(NS(=O)(=O)c3ccc(F)cc3)ccc2O1 | active
C[C@@H]1CCCCO[C@H](CN(C)C(=O)Nc2ccc(F)cc2)[C@@H](C)CN([C@@H](C)CO)C(=O)c2cc(NC(=O)CCCN(C)C)ccc2O1 | inactive
COc1ccc(NC(=O)N(C)C[C@@H]2Oc3ccc(NC(=O)Nc4cccc5ccccc45)cc3CC(=O)N([C@H](C)CO)C[C@H]2C)cc1 | inactive
COc1ccc(S(=O)(=O)N(C)C[C@@H]2Oc3c(NS(C)(=O)=O)cccc3C(=O)N([C@@H](C)CO)C[C@H]2C)cc1 | inactive
C[C@@H]1CCCCO[C@H](CN(C)Cc2ccccc2)[C@H](C)CN([C@H](C)CO)C(=O)c2cc(NS(=O)(=O)c3ccccc3)ccc2O1 | inactive
CCCN(C)C[C@@H]1Oc2cc(C#Cc3ccc(OC)cc3)ccc2S(=O)(=O)N([C@H](C)CO)C[C@@H]1C | inactive
C[C@H](CO)N1C[C@H](C)[C@H](CN(C)S(C)(=O)=O)Oc2c(NS(=O)(=O)c3cn(C)cn3)cccc2C1=O | active
Cc1nnc(NCc2ccccc2)n(N)c1=O | inactive
C[C@H]1CN([C@@H](C)CO)C(=O)c2cccc(NS(=O)(=O)c3ccccc3)c2O[C@@H]1CN(C)Cc1ccc(Oc2ccccc2)cc1 | inactive
Cc1ccc(S(=O)(=O)Nc2cccc3c2O[C@@H](CN(C)S(=O)(=O)c2ccc(F)cc2)[C@H](C)CN([C@@H](C)CO)C3=O)cc1 | inactive
CC(C)NC(=O)N(C)C[C@@H]1Oc2ccc(NC(=O)Nc3ccc4c(c3)OCO4)cc2C(=O)N([C@@H](C)CO)C[C@H]1C | inactive
C[C@H](CO)N1C[C@H](C)[C@H](CN(C)S(=O)(=O)c2ccc(Cl)cc2)OCc2cnnn2CCCC1=O | inactive
C[C@@H]1CN([C@H](C)CO)C(=O)CCCn2cc(nn2)CO[C@@H]1CN(C)Cc1cccc2c1OCCCO2 | inactive
C[C@@H]1CCCCO[C@H](CN(C)S(=O)(=O)c2cn(C)cn2)[C@@H](C)CN([C@H](C)CO)C(=O)c2cc(NS(=O)(=O)c3cccs3)ccc2O1 | inactive
C[C@@H]1CN([C@@H](C)CO)C(=O)c2cc(NC(=O)Nc3cccc4ccccc34)ccc2O[C@@H]1CN(C)C(=O)Nc1cccc2ccccc12 | inactive
COc1ccc(NC(=O)Nc2ccc3c(c2)C(=O)N([C@H](C)CO)C[C@@H](C)[C@H](CN(C)Cc2ccncc2)OCCCC[C@@H](C)O3)cc1 | inactive
